Measured values as given in PubChem BioAssay (NCATS).
This list was built around the results that the source calls inconclusive (neither active nor inactive); the mix of calls is not that of the screen. For some assays here: Potencies of inconclusive entries are doubtful fits and often do not repeat. For some assays here: “Side channel” marks fits to a control or component signal instead of the main read-out. Calls of active or inactive are those of the source. Unless noted, calls follow the shape of the full dose curve.

Columns and labels:
[1] = molecular target: Estrogen receptor (Homo sapiens) (UniProt P03372); test: qHTS assay for small molecule antagonists of estrogen receptor alpha signaling (AID 588513; active = well fitted curve in the direction sought with a large enough effect in the signal ratio, with a control signal flat, not every such curve was filed as active; inconclusive = small, poorly fitted or top-dose-only effect, or effect the other way, or a change in a side signal; inactive = no such curve, though single readings can be large or run the other way; the % refers to the signal ratio; also: potency is read from the fitted curve at half-maximal effect; as to activity, negative = inhibition: % is scaled to controls: 0 for no effect and ±100 for the full control effect); settings: ER-alpha-UAS-bla HEK293, beta-lactamase ratio, antagonist mode; activity, negative = inhibition: at 76.9 µM (top of the series) unless noted
Method in brief: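 Cells were plated at 5000/well and incubated 4 h at 37 C. Compounds were added as 1:2 dilution series, duplicates. 17-beta-estradiol (0.5nM final) was added for 18 h before CCF4 detection.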

[2] = molecular target: Estrogen receptor (Homo sapiens) (UniProt P03372); test: qHTS assay for small molecule agonists of estrogen receptor alpha signaling (AID 588514); settings: ER-alpha-UAS-bla HEK293, beta-lactamase ratio, 18 h; activation: at 76.8 µM (top of the series), percent of full estradiol response, vehicle zero; also: nearly all actives have a fitted effect of over 70% in size; also: potency is read from the fitted curve at half-maximal effect;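 as to activation: 0% = vehicle only and 100% = reference agonist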
Method in brief: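 ER-alpha-UAS-bla GripTite HEK293 cells, 5000/well in 2% charcoal/dextran-stripped FBS medium, treated with compound titrations 18 h at 37 C. CCF4 beta-lactamase read by fluorescence after 2 h RT; normalised to 20 nM 17-beta-estradiol (100%) and DMSO (0%), Hill fit for EC50 and efficacy.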

[3] = molecular target: Androgen receptor (Homo sapiens) (UniProt P10275); test: qHTS assay for small molecule agonists of androgen receptor signaling (AID 588515; active = well fitted curve in the direction sought with a large enough effect in the signal ratio, with a control signal flat; inconclusive = small, poorly fitted or top-dose-only effect, or effect the other way, or a change in a side signal; inactive = no such curve, though single readings can be large or run the other way; the % refers to the signal ratio; also: potency is read from the fitted curve at half-maximal effect; as to activation: % is scaled to controls: 0 for no effect and ±100 for the full control effect); settings: AR-UAS-bla HEK293, beta-lactamase ratio, agonist 16 h; activation: active compounds read high
Method in brief: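 EC50 and efficacy came from Hill fits of titrations (up to 92 uM) normalized to 30 nM R1881 as 100% and DMSO as 0%. Compound exposure was 16 h at 37 C on AR-UAS-bla HEK293 cells, with a 405/460/530 nm CCF4 fluorescence read.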

[4] = molecular target: Glucocorticoid receptor (Homo sapiens) (UniProt P04150); test: qHTS assay for small molecule agonists of glucocorticoid receptor signaling (AID 588532; active = well fitted curve in the direction sought with a large enough effect in the signal ratio, with a control signal flat; inconclusive = small, poorly fitted or top-dose-only effect, or a change in a side signal; inactive = no such curve, though single readings can be large or run the other way; the % refers to the signal ratio; also: potency is read from the fitted curve at half-maximal effect); settings: HeLa MMTV-bla, beta-lactamase ratio, agonist, 18 h; activation: active compounds read high, percent of dexamethasone control, DMSO zero
Method in brief: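 Titration series, up to 92 uM, applied to GRE-bla HeLa cells for 18 h at 37 C. Detection by CCF4 FRET substrate after 2 h at RT.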

[5] = molecular target: Peroxisome proliferator-activated receptor delta (Homo sapiens) (UniProt Q03181); test: qHTS assay for small molecule agonists of peroxisome proliferator-activated receptor delta signaling (AID 588534); settings: HEK293T PPARdelta-UAS-bla, beta-lactamase ratio, 18 h; activation: at 76.7 µM (top of the series); also: potency is read from the fitted curve at half-maximal effect
Method in brief: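 Cells carrying a PPAR-delta beta-lactamase reporter were treated with compounds for 18 h at 37 °C in agonist mode. CCF4 fluorescence was read after 2 h; EC50 and efficacy from Hill fits.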

[6] = molecular target: Peroxisome proliferator-activated receptor delta (Homo sapiens) (UniProt Q03181); test: qHTS assay for small molecule antagonists of peroxisome proliferator-activated receptor delta signaling (AID 588535; active = well fitted inhibition curve with a large enough effect in the signal ratio, with a control signal flat, not every such curve was filed as active; inconclusive = small, poorly fitted or top-dose-only effect, or effect the other way, or a change in a side signal; inactive = no such curve, though single readings can be large or run the other way; the % refers to the signal ratio; also: potency is read from the fitted curve at half-maximal effect); settings: HEK293T PPARd-UAS-bla, beta-lactamase FRET ratio, 18 h; activity change, negative = inhibition: at 76.7 µM (top of the series) unless noted
Method in brief: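 Reporter: UAS-bla under PPAR-delta response element, HEK293T host. Medium: 2% charcoal/dextran FBS. Dosing: titration, 18 hrs, 37 C. Detection: CCF4, 2 hrs RT, 405 ex/460 and 530 em.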

[7] = molecular target: Peroxisome proliferator-activated receptor gamma (Homo sapiens) (UniProt P37231); test: qHTS assay for small molecule antagonists of peroxisome proliferator-activated receptor gamma signaling (AID 588537; active = well fitted inhibition curve with a large enough effect in the signal ratio, with a control signal flat, not every such curve was filed as active; inconclusive = small, poorly fitted or top-dose-only effect, or effect the other way, or a change in a side signal; the % refers to the signal ratio; also: potency is read from the fitted curve at half-maximal effect;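 also: reporter cells co-stimulated with 50 nM rosiglitazone agonist during compound treatment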; as to activity, negative = inhibition: % of control where 0% means no effect); settings: HEK293 PPARg-UAS-bla, beta-lactamase ratio, antagonist mode; activity, negative = inhibition: at 76.8 µM (top of the series)
Method in brief: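 We seeded GeneBLAzer HEK293 reporter cells at 3000 per well, allowed 6-6.5 h attachment at 37 C, then co-treated with test compound titrations and 50 nM rosiglitazone overnight (16 h). Inhibition was quantified from 460/530 nm emission ratios.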

[8] = molecular target: Vitamin D3 receptor (Homo sapiens) (UniProt P11473); test: qHTS assay for small molecule antagonists of vitamin D receptor signaling (AID 588541); settings: HEK293T VDR-UAS-bla, beta-lactamase ratio, antagonist mode; activity change, negative = inhibition: at 76.7 µM (top of the series);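 also: receptor activated by calcitriol during compound treatment; % is scaled to controls: 0 for no effect and ±100 for the full control effect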
[9] = molecular target: Retinoic acid receptor RXR-alpha (Homo sapiens) (UniProt P19793); test: qHTS assay for small molecule agonists of retinoid X receptor alpha signaling (AID 588544); settings: HEK293T RXRa-UAS-bla, beta-lactamase reporter, 18 h; activation: at 76.7 µM (top of the series) unless noted; also: potency is read from the fitted curve at half-maximal effect
[10] = molecular target: Thyroid hormone receptor beta (Homo sapiens) (UniProt P10828); test: qHTS assay for small molecule agonists of thyroid hormone receptor beta signaling (AID 588545); settings: TR-UAS-bla GripTite HEK 293, beta-lactamase ratio, agonist mode, 18 h; activation: at 76.7 µM, percent of T3 response, DMSO as zero; also: potency is read from the fitted curve at half-maximal effect
Method in brief: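 TR-UAS-bla-GripTite HEK 293 cells in medium with 2% charcoal/dextran FBS, 0.1 mM NEAA and 1 mM sodium pyruvate were treated with titrated compounds for 18 hrs at 37 C. Beta-lactamase reporter was read with CCF4 dye (ex 405, em 460/530 nm); EC50 from Hill fits.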

[11] = molecular target: Retinoic acid receptor RXR-alpha (Homo sapiens) (UniProt P19793); test: qHTS assay for small molecule antagonists of retinoid X receptor alpha signaling (AID 588546; active = well fitted inhibition curve with a large enough effect in the signal ratio, with a control signal flat, not every such curve was filed as active; inconclusive = small, poorly fitted or top-dose-only effect, or effect the other way, or a change in a side signal; inactive = no such curve, though single readings can be large or run the other way; the % refers to the signal ratio; also: potency is read from the fitted curve at half-maximal effect;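 as to max response: cells stimulated with 9-cis-retinoic acid as agonist; % is scaled to controls: 0 for no effect and ±100 for the full control effect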); settings: HEK293T RXRa-UAS-bla, beta-lactamase ratio, antagonist mode
Method in brief: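 Beta-lactamase reporter inhibition, read as CCF4 fluorescence ratio (ex 405, em 460/530 nm) after 2 h at RT. HEK293T UAS-bla cells, 2500/well, were stimulated with 9-cis-RA at 500 or 100 nM final alongside test compound for 18 h at 37 C.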

[12] = molecular target: Thyroid hormone receptor beta (Homo sapiens) (UniProt P10828); test: qHTS assay for small molecule antagonists of thyroid hormone receptor beta signaling (AID 588547; active = well fitted inhibition curve with a large enough effect in the signal ratio, with a control signal flat, not every such curve was filed as active; inconclusive = small, poorly fitted or top-dose-only effect, or effect the other way, or a change in a side signal; the % refers to the signal ratio; also: potency is read from the fitted curve at half-maximal effect); settings: TR-UAS-bla HEK293, beta-lactamase ratio, antagonist mode, 18 h
Method in brief: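 TR-UAS-bla GripTite HEK293 cells in 2% charcoal/dextran FBS medium were preincubated 4 h at 37 C, given compound (0.59 nM to 92 uM) plus 0.4 nM T3 (final) for 18 h, then CCF4 for 2 h at RT; Hill fit gave IC50.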

[13] = qHTS assay for small molecule activators of the p53 signaling pathway (AID 651743; active = well fitted activation curve with a large enough effect in the signal ratio, not every such curve was filed as active; inconclusive = small, poorly fitted or top-dose-only effect, or a change in a side signal; the % refers to the signal ratio; also: potency is read from the fitted curve at half-maximal effect); settings: HCT-116 p53RE-bla, beta-lactamase FRET ratio, 16 h; activation: active compounds read high
Method in brief: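 Cell-based beta-lactamase reporter (p53 response elements, HCT-116 background). After a 5-hour preincubation, cells received compound for 16 hours at 37 C; substrate development ran 2 hours at room temperature.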

[14] = qHTS assay for small molecule agonists of the antioxidant response element (ARE) signaling pathway measured by Nrf2-dependant transcriptional activity (AID 720636; active = well fitted curve in the direction sought with a large enough effect in the repeat runs; inconclusive = weak or mixed curves; inactive = no such curve, though single readings can be large; an effect the other way counts as inactive or inconclusive; also: potency is read from the fitted curve at half-maximal effect)
Method in brief: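 We exposed ARE-luc HepG2 cells, seeded in assay medium with 1% dialyzed FBS and allowed 6 hr to adhere, to test compounds overnight (16 hr, 37 C) before measuring luciferase with ONE-Glo.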

[15] = qHTS assay for small molecule agonists of the antioxidant response element (ARE) signaling pathway measured by Nrf2-dependant transcriptional activity - cell viability counter screen (AID 720653; active = well fitted curve in the direction sought with a large enough effect in the repeat runs; inconclusive = weak or mixed curves; inactive = no such curve, though single readings can be large; an effect the other way counts as inactive or inconclusive; also: potency is read from the fitted curve at half-maximal effect); settings: ARE-bla HepG2 viability, CellTiter-Glo ATP luminescence, 16 h; max response: active compounds read low
Method in brief: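 ARE-bla HepG2 cells (2,000/well) rested 5 hrs at 37C/5% CO2, then exposed to compounds in DMSO for 16 hrs. Viability was read in the same wells as intracellular ATP by luminescence, 30 min at room temperature after reagent addition.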

[16] = molecular target: Bile acid receptor (Homo sapiens) (UniProt Q96RI1); test: qHTS assay for small molecule antagonists of farnesoid X receptor signaling (AID 588526); settings: HEK293T FXR-UAS-bla, beta-lactamase ratio, antagonist mode; activity change, negative = inhibition: at 76.7 µM (top of the series); also: potency is read from the fitted curve at half-maximal effect
Method in brief: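 Concentration-response titrations were fitted to the Hill equation for half-maximal inhibition and maximal response, with data normalised to 50 uM chenodeoxycholic acid and DMSO control wells. Cells: FXR-UAS-bla HEK293T, dialyzed FBS.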

[17] = molecular target: Bile acid receptor (Homo sapiens) (UniProt Q96RI1); test: qHTS assay for small molecule agonists of farnesoid X receptor signaling (AID 588527); settings: HEK293T FXR-UAS-bla, beta-lactamase ratio, 16 h; activation: active compounds read high; also: potency is read from the fitted curve at half-maximal effect
Method in brief: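 FXR-UAS-bla HEK293T cells (10% dialyzed FBS) preincubated 5-7 h at 37 C, then compounds at up to 92 uM for 16 h at 37 C. CCF4 beta-lactamase read-out after 2 h RT. Normalized to chenodeoxycholic acid (100 uM) and DMSO; Hill fit gave EC50 and efficacy.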

[18] = molecular target: Glucocorticoid receptor (Homo sapiens) (UniProt P04150); test: qHTS assay for small molecule antagonists of glucocorticoid receptor signaling (AID 588533; active = well fitted inhibition curve with a large enough effect in the signal ratio, with a control signal flat, not every such curve was filed as active; inconclusive = small, poorly fitted or top-dose-only effect, or effect the other way, or a change in a side signal; the % refers to the signal ratio); settings: HeLa MMTV-bla, GRE beta-lactamase ratio, antagonist mode, 18 h; activity change, negative = inhibition: at 76.8 µM (top of the series) unless noted
[19] = molecular target: Peroxisome proliferator-activated receptor gamma (Homo sapiens) (UniProt P37231); test: qHTS assay for small molecule agonists of peroxisome proliferator-activated receptor gamma signaling (AID 588536; active = well fitted curve in the direction sought with a large enough effect in the signal ratio, with a control signal flat, not every such curve was filed as active; inconclusive = small, poorly fitted or top-dose-only effect, or effect the other way, or a change in a side signal; inactive = no such curve, though single readings can be large or run the other way; the % refers to the signal ratio; also: potency is read from the fitted curve at half-maximal effect); settings: HEK293 PPARg-UAS-bla, beta-lactamase ratio, 16 h; activation: at 76.7 µM (top of the series), percent of rosiglitazone response, DMSO as zero unless noted
Method in brief: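 GeneBLAzer PPAR-gamma-UAS-bla HEK293 cells in 1% charcoal/dextran-treated FBS medium were treated 16 h at 37 C with compounds. Beta-lactamase activity was read by CCF4 ratio (460/530 nm). Response was normalized to 2 uM rosiglitazone (100%) and DMSO, then Hill-fitted for EC50 and efficacy.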

[20] = qHTS assay for small molecule agonists of the antioxidant response element (ARE) signaling pathway (AID 651741; active = well fitted activation curve with a large enough effect in the signal ratio; inconclusive = small, poorly fitted or top-dose-only effect, or effect the other way, or a change in a side signal; the % refers to the signal ratio; also: potency is read from the fitted curve at half-maximal effect); settings: HepG2 ARE-bla reporter, beta-lactamase FRET ratio, 16 h; activation: at 96 µM (top of the series) unless noted
Method in brief: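 Compounds in DMSO are pinned onto HepG2 ARE-bla cells (2,000/well) that were preincubated 5 h; plates stay 16 h at 37 C, then beta-lactamase activity is detected with LiveBLAzer B/G substrate by fluorescence.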

[21] = molecular target: 3',5'-cyclic-AMP phosphodiesterase 4B (Homo sapiens) (UniProt Q07343); test: qHTS Assay for Inhibitors of PDE-IV (AID 607; active = well fitted activation curve with a large enough effect in the main read-out, with a control signal flat, not every such curve was filed as active; inconclusive = small, poorly fitted or top-dose-only effect, or effect the other way, or a change in a side signal; also: potency is read from the fitted curve at half-maximal effect); settings: HEK293 ACTOne CNG channel cells, membrane potential fluorescence; activation (PDE inhibition): at 22.9 µM (top of the series)
Method in brief: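 HEK293 ACTOne cells with CNG channel (1000/well), endogenous PDE4; membrane potential dye, compounds up to 22.9 uM final. Fluorescence Ex 535/Em 590; RO 20-1724 (100 uM final) as reference.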

[22] = molecular target: DNA dC->dU-editing enzyme APOBEC-3G (Homo sapiens) (UniProt Q9HC16); test: qHTS for inhibitors of Vif-A3G interactions: Validation (AID 588379; active = well fitted curve in the direction sought with a large enough effect; inconclusive = small, poorly fitted or top-dose-only effect, or another doubt; inactive = no such curve, though single readings can be large; an effect the other way counts as inactive or inconclusive; also: 0% is about no effect)
Method in brief: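 HeLa cells stably expressing Vif and A3G-eYFP, 700 cells/well, incubated overnight at 37 deg C, then exposed to compound overnight at 37 deg C. Inhibition of Vif-mediated degradation read as increased yellow fluorescence (Ex 488/Em 500-530) by laser-scanning cytometry.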
Tags tell the direction and shape of the fitted curve or compound fluorescence and quenching.

Sequence of UniProt P03372 (P03372 whole entry, looked up): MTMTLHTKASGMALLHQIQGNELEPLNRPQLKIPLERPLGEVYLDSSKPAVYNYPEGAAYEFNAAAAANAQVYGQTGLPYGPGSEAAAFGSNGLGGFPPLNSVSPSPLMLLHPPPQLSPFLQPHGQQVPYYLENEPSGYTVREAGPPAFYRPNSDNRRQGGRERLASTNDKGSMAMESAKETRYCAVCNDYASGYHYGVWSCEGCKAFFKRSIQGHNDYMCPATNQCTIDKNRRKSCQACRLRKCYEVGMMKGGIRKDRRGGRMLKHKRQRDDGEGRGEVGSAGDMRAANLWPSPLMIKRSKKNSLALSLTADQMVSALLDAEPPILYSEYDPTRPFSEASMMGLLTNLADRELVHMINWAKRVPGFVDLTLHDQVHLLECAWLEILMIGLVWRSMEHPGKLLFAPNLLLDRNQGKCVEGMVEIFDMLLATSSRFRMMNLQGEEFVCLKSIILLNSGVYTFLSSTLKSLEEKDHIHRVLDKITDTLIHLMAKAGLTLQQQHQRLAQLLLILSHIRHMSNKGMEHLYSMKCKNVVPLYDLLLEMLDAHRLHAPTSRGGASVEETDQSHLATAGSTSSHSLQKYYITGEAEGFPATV
Sequence of UniProt Q03181 (Q03181 whole entry, looked up): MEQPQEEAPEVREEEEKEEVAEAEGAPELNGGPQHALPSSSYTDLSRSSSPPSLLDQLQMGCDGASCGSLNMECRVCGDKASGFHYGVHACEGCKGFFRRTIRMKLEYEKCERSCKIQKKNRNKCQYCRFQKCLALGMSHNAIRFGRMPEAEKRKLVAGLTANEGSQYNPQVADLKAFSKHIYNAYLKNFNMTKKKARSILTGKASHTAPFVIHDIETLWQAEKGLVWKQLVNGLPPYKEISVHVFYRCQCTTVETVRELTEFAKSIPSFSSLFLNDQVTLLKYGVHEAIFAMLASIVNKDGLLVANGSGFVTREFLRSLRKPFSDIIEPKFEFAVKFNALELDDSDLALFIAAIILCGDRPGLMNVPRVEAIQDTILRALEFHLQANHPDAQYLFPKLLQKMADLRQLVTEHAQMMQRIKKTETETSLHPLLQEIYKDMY
Sequence of UniProt P10828 (P10828 whole entry, looked up): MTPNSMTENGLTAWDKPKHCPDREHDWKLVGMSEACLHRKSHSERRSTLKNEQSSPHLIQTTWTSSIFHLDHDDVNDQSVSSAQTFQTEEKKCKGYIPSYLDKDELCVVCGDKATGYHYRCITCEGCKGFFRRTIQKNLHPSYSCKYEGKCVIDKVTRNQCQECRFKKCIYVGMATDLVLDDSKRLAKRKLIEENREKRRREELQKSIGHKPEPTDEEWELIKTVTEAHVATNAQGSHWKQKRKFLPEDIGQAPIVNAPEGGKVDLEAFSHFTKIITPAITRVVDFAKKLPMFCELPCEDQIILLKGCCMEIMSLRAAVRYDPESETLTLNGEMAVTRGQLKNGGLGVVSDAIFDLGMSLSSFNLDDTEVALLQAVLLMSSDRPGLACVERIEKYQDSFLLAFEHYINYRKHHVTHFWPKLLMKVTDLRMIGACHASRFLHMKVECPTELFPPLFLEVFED
Sequence of UniProt P19793 (P19793 whole entry, looked up): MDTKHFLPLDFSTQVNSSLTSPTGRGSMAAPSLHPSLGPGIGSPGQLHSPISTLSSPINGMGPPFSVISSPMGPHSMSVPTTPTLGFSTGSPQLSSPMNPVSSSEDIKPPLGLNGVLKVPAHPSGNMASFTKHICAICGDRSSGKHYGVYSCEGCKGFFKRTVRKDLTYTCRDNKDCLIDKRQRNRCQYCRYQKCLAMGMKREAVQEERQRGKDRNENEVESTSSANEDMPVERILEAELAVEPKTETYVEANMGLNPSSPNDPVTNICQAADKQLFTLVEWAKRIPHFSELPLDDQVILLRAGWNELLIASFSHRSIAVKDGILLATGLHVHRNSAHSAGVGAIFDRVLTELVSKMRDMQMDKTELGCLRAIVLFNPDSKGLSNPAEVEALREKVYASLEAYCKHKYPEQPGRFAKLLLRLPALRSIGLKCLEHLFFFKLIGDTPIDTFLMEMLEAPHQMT
Sequence of UniProt P10275 (P10275 whole entry, looked up): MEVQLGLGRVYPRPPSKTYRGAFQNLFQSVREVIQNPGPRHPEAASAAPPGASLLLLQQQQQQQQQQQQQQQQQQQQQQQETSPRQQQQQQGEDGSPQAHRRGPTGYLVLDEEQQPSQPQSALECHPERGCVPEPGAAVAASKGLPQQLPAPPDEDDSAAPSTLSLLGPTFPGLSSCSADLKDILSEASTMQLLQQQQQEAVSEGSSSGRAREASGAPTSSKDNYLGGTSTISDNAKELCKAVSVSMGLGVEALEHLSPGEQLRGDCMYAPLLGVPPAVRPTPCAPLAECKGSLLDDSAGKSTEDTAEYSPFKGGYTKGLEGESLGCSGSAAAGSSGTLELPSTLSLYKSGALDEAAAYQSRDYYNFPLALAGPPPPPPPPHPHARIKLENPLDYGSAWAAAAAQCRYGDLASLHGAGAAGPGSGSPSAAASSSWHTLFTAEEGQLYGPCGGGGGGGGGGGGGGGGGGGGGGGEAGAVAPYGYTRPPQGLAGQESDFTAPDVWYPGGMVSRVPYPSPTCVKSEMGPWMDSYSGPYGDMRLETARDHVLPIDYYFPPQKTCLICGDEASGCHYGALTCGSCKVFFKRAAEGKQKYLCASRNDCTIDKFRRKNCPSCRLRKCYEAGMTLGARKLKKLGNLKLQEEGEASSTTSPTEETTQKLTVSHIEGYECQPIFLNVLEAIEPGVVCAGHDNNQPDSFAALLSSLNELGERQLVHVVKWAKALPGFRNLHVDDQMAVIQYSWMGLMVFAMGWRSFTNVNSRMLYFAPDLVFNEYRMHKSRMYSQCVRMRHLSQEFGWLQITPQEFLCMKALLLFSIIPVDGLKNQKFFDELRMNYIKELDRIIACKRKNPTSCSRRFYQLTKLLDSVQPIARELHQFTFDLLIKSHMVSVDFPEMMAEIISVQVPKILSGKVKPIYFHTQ
Sequence of UniProt Q9HC16 (Q9HC16 whole entry, looked up): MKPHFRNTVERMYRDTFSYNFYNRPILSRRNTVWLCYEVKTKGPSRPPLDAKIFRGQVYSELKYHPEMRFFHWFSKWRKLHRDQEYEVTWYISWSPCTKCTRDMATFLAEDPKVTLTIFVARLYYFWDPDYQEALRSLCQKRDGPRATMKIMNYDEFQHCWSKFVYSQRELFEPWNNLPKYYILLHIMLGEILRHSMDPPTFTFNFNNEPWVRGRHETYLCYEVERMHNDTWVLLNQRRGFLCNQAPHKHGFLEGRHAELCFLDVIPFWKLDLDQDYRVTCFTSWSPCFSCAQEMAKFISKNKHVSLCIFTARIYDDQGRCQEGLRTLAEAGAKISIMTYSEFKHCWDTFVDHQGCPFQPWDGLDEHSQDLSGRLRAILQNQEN
Sequence of UniProt Q07343 (Q07343 whole entry, looked up): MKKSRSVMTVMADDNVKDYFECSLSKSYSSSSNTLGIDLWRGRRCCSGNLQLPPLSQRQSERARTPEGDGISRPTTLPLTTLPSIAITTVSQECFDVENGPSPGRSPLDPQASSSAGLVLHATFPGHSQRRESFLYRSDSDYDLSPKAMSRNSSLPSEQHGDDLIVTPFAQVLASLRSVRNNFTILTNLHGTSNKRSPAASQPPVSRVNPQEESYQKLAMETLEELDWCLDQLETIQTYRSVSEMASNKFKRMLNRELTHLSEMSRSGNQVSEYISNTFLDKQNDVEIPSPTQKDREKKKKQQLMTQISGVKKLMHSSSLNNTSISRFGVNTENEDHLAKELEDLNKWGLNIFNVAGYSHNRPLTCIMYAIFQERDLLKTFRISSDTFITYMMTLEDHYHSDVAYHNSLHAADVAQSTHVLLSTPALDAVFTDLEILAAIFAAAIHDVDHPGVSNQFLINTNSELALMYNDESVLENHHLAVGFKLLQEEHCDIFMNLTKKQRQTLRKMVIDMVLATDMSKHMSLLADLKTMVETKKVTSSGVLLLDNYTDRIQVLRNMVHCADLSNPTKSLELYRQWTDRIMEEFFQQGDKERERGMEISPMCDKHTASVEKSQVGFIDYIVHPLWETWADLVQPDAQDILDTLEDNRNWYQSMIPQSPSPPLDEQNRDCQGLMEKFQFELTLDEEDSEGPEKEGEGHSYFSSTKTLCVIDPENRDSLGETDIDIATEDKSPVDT

Cc1ccc(-c2c(Cl)nc(C#N)n2S(=O)(=O)N(C)C)cc1
inconclusive: Potency [1] 17.8 µM [side channel, rising, full curve] | Potency [2] 11.2 µM [fluorescent, side channel, full curve] | Potency [3] 44.7 µM [side channel, rising, partial curve] | Potency [4] 12.6 µM [fluorescent, side channel, partial curve] | Potency [5] 25.1 µM [side channel, rising, partial curve] | Potency [6] 31.6 µM [fluorescent, side channel, partial curve, poor fit] | activity, negative = inhibition [7] -35.7% | activity change, negative = inhibition [8] -9.54% | Potency [9] 20 µM [fluorescent, side channel, partial curve] | Potency [10] 39.8 µM [side channel, rising, partial curve] | max response [11] -49.6% | Potency [12] 31.6 µM [fluorescent, side channel, partial curve] | Potency [14] 20.4 µM [activator, partial curve, poor fit] | Potency [15] 50.1 µM [cytotoxic, single point]
active: Potency [13] 28.2 µM

C=CC(=O)OCC(CC)(COC(=O)C=C)COC(=O)C=C
inactive: activation [3] -16.7%
active: Potency [18] 44.7 µM | Potency [11] 44.7 µM | Potency [20] 34.4 µM | Potency [14] 61.1 µM
inconclusive: activity, negative = inhibition [1] -120% | activation [2] -8.75% | Potency [16] 50.1 µM [side channel, rising, single point] | Potency [17] 28.2 µM [activator, single point] | Potency [6] 44.7 µM [falling, partial curve] | Potency [19] 8.91 µM [activator, full curve] | Potency [7] 50.1 µM [side channel, rising, single point] | Potency [9] 44.7 µM [inhibitor, partial curve] | Potency [12] 28.2 µM [falling, full curve] | Potency [13] 70.8 µM [activator, single point]

C[C@@H](Cc1cccc(C(F)(F)F)c1)NCCCc1ccccc1
inactive: Potency [22]
inconclusive: Potency [21] 15.1 µM [rising, partial curve]
